Values marked as one replicate rest on one cluster of the flow cell; about a third of the high ones do not repeat.
The sequences below were run on ATP (assay: switch fluorescence ratio, 500 uM ATP over buffer (Cy3 cluster intensity, sum of 5 cycles each) (fold (ratio)); higher = stronger signal-on switching upon ATP binding; sequences stand for … in TCGTCGGCAGCGTCAGATGTGTATAAGAGACAGTTTTTTTTTTTTTTTTTTTTTTTTT…TC). Details: aptamer strand: ATP DNA aptamer (quencher-CACCTGGGGGAGTATTGCGGAGGAAGG + anchor), 100 nM annealed; ATP concentration: 500 uM; one replicate.
In short: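 Clusters with intensities outside 100-1000 RFU were excluded. The remaining Cy3-labelled switching-strand clusters on a modified Illumina MiSeq flow-cell had been annealed to 100 nM quencher-labelled ATP aptamer and imaged in selection buffer, then after 15 min with 500 uM ATP at 22 °C, for five cycles separated by NaOH stripping and re-annealing. The fluorescence ratio, averaged per switch-domain sequence, is each cluster's summed target-cycle Cy3 intensity over its summed buffer-cycle Cy3 intensity.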
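Further: ATP exposure 15 min at 22 °C before imaging.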

Sequence | switch fluorescence ratio
ACGTGCAGTA | 1.05
ACGTGCTATA | 1.14
ACGTGCTCTT | 0.984
ACGTGTCGCC | 0.953
ACGTGTGTAG | 1.02
ACGTTAGTT | 0.94
ACGTTATATC | 1.24
ACGTTATCTA | 1.14
ACGTTCGCTT | 1.08
ACGTTGTCT | 0.989
ACGTTTTGCT | 0.952
ACTAAGACGG | 1.02
ACTAAGAGAA | 0.98
ACTAAGGCCG | 1.14
ACTAATCGTC | 0.991
ACTAATGATT | 1.05
ACTAATTCGC | 1.06
ACTAATTTC | 1.03
ACTACCTAGA | 1.09
ACTACTGGGG | 1.09
ACTAGTAATC | 1.01
ACTAGTCATC | 1.04
ACTATAATGG | 1.05
ACTATACTTG | 1.15
ACTATAGCA | 1.05

Sequence | switch fluorescence ratio
ACTATATTTC | 1.11
ACTATCACGT | 1.19
ACTATCCGAG | 1.11
ACTATCTATA | 1.01
ACTATCTCAA | 1.06
ACTATGAAAG | 0.961
ACTATGAGGG | 1.01
ACTATGGACA | 0.941
ACTATTCGGG | 1
ACTATTGAAC | 0.95
ACTATTTAAG | 0.954
ACTCAATTAC | 2.21
ACTCAATTG | 1.01
ACTCAGACA | 1.03
ACTCAGTCGT | 1.04
ACTCATAACG | 1.08
ACTCATAACT | 1.01
ACTCATACTT | 1.07
ACTCATCTTA | 1.01
ACTCATGACC | 1.03
ACTCCACATA | 3.84
ACTCCCTGGA | 1.36
ACTCCGAGAT | 7.01
ACTCCGAGCG | 1.72
ACTCCGGTAA | 1.19

Sequence | switch fluorescence ratio
ACTCCTAATT | 1.09
ACTCCTGTAT | 1.03
ACTCCTTAGA | 1.1
ACTCCTTTTT | 0.962
ACTCGACTGC | 1.12
ACTCGCGTCC | 1.28
ACTCGGTCA | 1.01
ACTCGTCAAA | 1.04
ACTCGTCGCT | 1.05
ACTCGTGCGT | 0.966
ACTCGTTTGG | 1.06
ACTCTAGATA | 1.23
ACTCTATTA | 1.08
ACTCTCTGCG | 1.08
ACTCTGCCAC | 4.87
ACTCTGGTGA | 1.11
ACTCTTAGCA | 1.19
ACTCTTCGC | 1.08
ACTGAAATTT | 1.01
ACTGAAGACT | 1.02
ACTGACCGTT | 1.19
ACTGAGAGTA | 1.03
ACTGAGGAGC | 1.02
ACTGAGGATT | 1.05
ACTGAGTCTT | 1.05

Sequence | switch fluorescence ratio
ACTGAGTGTA | 1.03
ACTGATTAAC | 1.06
ACTGCCGGGG | 1.09
ACTGCGGAAT | 2.43
ACTGCTCTCG | 1.07
ACTGCTTAGA | 0.996
ACTGGACATG | 1.09
ACTGGCGGGG | 0.998
ACTGGCTCTG | 1
ACTGGGAGTT | 0.985
ACTGGGCCGA | 1.01
ACTGGTAGGG | 0.997
ACTGTATCCT | 1.17
ACTGTCGTAT | 1.02
ACTGTCGTTT | 0.996
ACTGTGATCC | 1.06
ACTGTGGGAT | 1.01
ACTGTTATCA | 1.06
ACTTACAGTG | 1.13
ACTTAGGTCT | 1.01
ACTTATAGC | 1.01
ACTTCAATCC | 1.01
ACTTCGACCT | 1.34
ACTTCGGGTG | 1.16
ACTTCGTAAA | 0.997

— the supplement of paper PMC10126150
